The other results are listed elsewhere or left out. At the low end of the ranking, values are background and their order means little.
Biological target: T1, GST-Rok-C97-191 (UniProt O34857)
T1 sequence: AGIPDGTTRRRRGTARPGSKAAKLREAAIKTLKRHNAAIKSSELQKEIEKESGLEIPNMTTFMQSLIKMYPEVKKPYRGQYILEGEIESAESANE
Assay: protein binding microarray;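 also: rank score from −0.5 (least bound) to 0.5 (best bound)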
Conditions: Rok is a gene silencer of Bacillus subtilis; high values mean tight binding; most listed sequences are background and not binding sites; double strand, one strand shown

Sequence | binding signal
AGAACTCG | -0.145 E-score
CGGAGGTA | -0.0536 E-score
GCTGCGCC | -0.0516 E-score
AGTAGGTG | 0.127 E-score
CCGCCGAG | 0.0964 E-score
TCATCGAA | -0.0838 E-score
AAATCTCG | 0.146 E-score
CGCATCAC | -0.154 E-score
AGATTGGG | -0.00462 E-score
CTGTTCCA | -0.161 E-score
AGGACAAG | 0.0165 E-score
CTTACGGC | -0.196 E-score
AGAGCACT | -0.254 E-score
CGCCATAG | -0.17 E-score
CGTCACTC | -0.0148 E-score
AACGCTAT | 0.0771 E-score
GCTCGCCA | -0.157 E-score
AAAAGCCG | 0.0236 E-score
GATTAGAC | 0.0246 E-score
ACATAGTG | 0.0308 E-score
GTTGAATA | 0.173 E-score
GCGACACA | -0.0711 E-score
AGACAGAG | -0.118 E-score
AGGGAACT | -0.0487 E-score
GTGCTCTA | -0.182 E-score

Sequence | binding signal
GACGACCC | -0.143 E-score
CCTCAATA | 0.064 E-score
CTATGAGA | 0.0366 E-score
AACTTCCT | -0.151 E-score
AACAGATT | -0.0624 E-score
CGGCCAAA | -0.0805 E-score
GTAATGCA | 0.083 E-score
CCTTCATA | 0.0461 E-score
AGTAGCCC | -0.169 E-score
TACCACCA | 0.196 E-score
ACAATCCA | 0.0177 E-score
AGCGCCCC | -0.198 E-score
GCGGTCCC | -0.244 E-score
CTTTAGCA | -0.0326 E-score
GTCTCTCA | -0.13 E-score
GCGCCTCA | -0.369 E-score
AGTTTTAA | 0.0365 E-score
CTCTTACA | -0.034 E-score
AGCCCTAC | -0.0154 E-score
CGCGTTAC | -0.0817 E-score
GCATCTGA | -0.0514 E-score
ACTTAAAC | -0.0216 E-score
CCCGCTAG | -0.117 E-score
TAAAGGTA | 0.167 E-score
ACCTCCGT | -0.238 E-score

Sequence | binding signal
TTCTTCAA | -0.0566 E-score
CGACAGGA | -0.321 E-score
GGAAGAAA | 0.124 E-score
ACGAGAGC | -0.131 E-score
CCCAAGCC | -0.216 E-score
ACTTGGTC | -0.0788 E-score
ACACCACC | -0.0215 E-score
CCTATGCA | -0.106 E-score
CTCGACCA | -0.0351 E-score
AATCAAGG | 0.0133 E-score
ACGCAAAT | -0.00499 E-score
TCCAAAAA | 0.0483 E-score
CCCGCGCG | -0.274 E-score
CGCAACGA | -0.106 E-score
AGATAACG | 0.196 E-score
CTTGAACC | -0.194 E-score
TAAGTAGA | 0.317 E-score
GGGAGGTA | 0.048 E-score
ATACTGGG | 0.157 E-score
CTTTTATC | 0.0697 E-score
GCGGTCCA | -0.138 E-score
AAGGCCAT | -0.215 E-score
GAAAGATC | 0.0102 E-score
ATGGCCAT | 0.151 E-score
TAACCGTA | 0.169 E-score

Sequence | binding signal
AAGGCGAC | -0.238 E-score
AACTACGG | 0.19 E-score
AGATCAAA | 0.00988 E-score
CAAGACTA | 0.186 E-score
ACATGAAA | 0.118 E-score
GATAACTA | 0.29 E-score
CTGTATTA | 0.261 E-score
TGATGAAA | 0.105 E-score
GGTGACCA | -0.136 E-score
CTAGGTCC | -0.126 E-score
ATTTAAGG | 0.0954 E-score
ACAGTATC | 0.163 E-score
AATCTCTC | 0.0357 E-score
AACGCTCC | -0.0965 E-score
CATGTTAC | 0.15 E-score
ACCACAAA | 0.0876 E-score
CTTGACCC | -0.314 E-score
ACCATTAC | 0.268 E-score
CCGGTATA | 0.117 E-score
CGCATCGC | -0.099 E-score
AGGCCCCA | -0.193 E-score
GCTGATGA | 0.00557 E-score
ATGTCGTG | 0.00732 E-score
CAAAGGGA | -0.294 E-score
AAGCGGCG | -0.351 E-score

Sequence | binding signal
ACACGCCA | -0.111 E-score
CCGAGCGG | -0.183 E-score
AAGAAAGT | 0.236 E-score
ACAAGATG | 0.0122 E-score
GAGGGCCA | -0.231 E-score
TGAGGTAA | 0.126 E-score
TAACGCGA | 0.00679 E-score
GGAAACCA | -0.105 E-score
ATGCAATG | 0.0885 E-score
GCAAAACA | -0.0122 E-score
CATGAGGG | -0.283 E-score
CTGAAAAA | -0.0833 E-score
ACGTTGTC | -0.0888 E-score
ATCAGACA | 0.00352 E-score
CTCAATTA | 0.037 E-score
CTGCGGGA | -0.268 E-score
AAAGCACT | -0.0789 E-score
AGCACTTC | -0.113 E-score
CATGCGAC | -0.132 E-score
CCCCCTCC | -0.428 E-score
AAAAATCC | 0.06 E-score
AGAGGGCT | -0.21 E-score
CATCCTGG | -0.0651 E-score
AAGAATGT | 0.101 E-score
TGAGCACA | -0.269 E-score

Sequence | binding signal
GGAGGTTA | -0.0839 E-score
CATGCATC | -0.0333 E-score
ACAAGGCA | -0.136 E-score
CTGGCTTC | -0.157 E-score
GCAGCAAA | -0.119 E-score
ACCCTTAC | -0.106 E-score
AAATCGAA | 0.224 E-score
AGGTTGCC | -0.157 E-score
AACCACGT | 0.129 E-score
AGGTCCTG | -0.0134 E-score
ACCCATAA | 0.201 E-score
CAAATGCG | 0.0371 E-score
GTTGCATA | -0.00101 E-score
CACCATCG | -0.112 E-score
AGGAGACC | -0.161 E-score
ACGTGAAC | 0.0345 E-score
GCAATCTA | 0.307 E-score
GCCGGTCA | -0.0374 E-score
CCGCGTCG | -0.056 E-score
AACCCCGA | -0.174 E-score
ATACGAAA | 0.0585 E-score
ACCTATCA | 0.0914 E-score
ACTAAAAC | 0.26 E-score
CAGTGTAA | 0.000763 E-score
ATATAATG | 0.3 E-score

Sequence | binding signal
ACTATTCC | 0.137 E-score
CTACCCAG | 0.15 E-score
AGAAAAGA | 0.244 E-score
CAGCATCC | -0.0907 E-score
ACATGCAA | 0.163 E-score
CGATTTAA | 0.0832 E-score
CCAATCCA | -0.115 E-score
CCTTAGCG | -0.12 E-score
CTTGGAAA | -0.154 E-score
AACAACAC | -0.0729 E-score
CCCCGATC | -0.273 E-score
AGAATTAC | 0.217 E-score
CTAAGCCC | -0.256 E-score
ATCAGACG | -0.0325 E-score
AGGACAGC | -0.258 E-score
CGCGGTTA | -0.143 E-score
ACGCCCCA | -0.283 E-score
GTTTGTCA | 0.0023 E-score
AATGGCTG | -0.119 E-score
GGGCCCAA | -0.237 E-score
CGCAGGAA | -0.0886 E-score
CCTAGCCG | -0.252 E-score

Reference: PMC6212790
